Read counts are not given, so values of variants with three or more changes are uncertain.
B1: LINE1-mini (parent)
chain: GGCAGAGCUCAACACAGCGUGGCAAAGUGGCUGUGGCUAGACUGCC

Variants of: B1
Assay: self-cleavage, relative activity (ratio to wild type); higher = more cleavage; in vitro, sequencing; the parent is a self-cleaving ribozyme

Variant | self-cleavage
G5U C10G G21C C23A | 0.02
G5U C10G G22A A39G | 0.02
G5U C10G G22C C23U | 0.01
G5U C10U C15G A24U C31A C42A C46G | 0.02
G5U C10U G40A C46A | 0.05
G5U C13A A14C A24G G27C | 0.01
G5U C13A A24G U28G C42G | 0.03
G5U C13A C15A G19C | 0.02
G5U C13A C18U U32C G33A U38C A41C | 0.01
G5U C13A C37G | 0.02
G5U C13A G30C | 0.14
G5U C13G A16G C18U | 0.02
G5U C13G G19A | 0.06
G5U C13G G19A U20C G35U | 0.03
G5U C13G G35C | 0.13
G5U C13U G29A | 0.02
G5U C13U G29U G33U | 0
G5U C15A G30C U34G | 0
G5U C15A G36U G40U | 0.01
G5U C15G A16C G17U U28C | 0
G5U C15G A24G G40C | 0.03
G5U C15G A26U U32A | 0
G5U C15G G21A | 0.07
G5U C15G G21C U32G U38C | 0

Variant | self-cleavage
G5U C15U A26G U34A C37U | 0.02
G5U C15U G19A A39G | 0.02
G5U C15U G19C C46A | 0.43
G5U C15U G35U C37U U43A | 0.07
G5U C18A C31U G33A | 0.04
G5U C18A G40U C45A | 0.02
G5U C18G G22C U43A C46U | 0.04
G5U C18G U28C C45U C46U | 0.05
G5U C18U C42U | 0.02
G5U C18U U32G | 0.03
G5U C23A A24U G33A G44A | 0.04
G5U C23A G30U G40C | 0.43
G5U C23A U28A | 0.05
G5U C23G C45G | 0.05
G5U C23G G40U C42U | 0.05
G5U C23U A41C G44U C46A | 0.05
G5U C23U C45U | 0.09
G5U C23U G29U C37G A41C | 0.01
G5U C31A U32G | 0.05
G5U C31G G35U U38G G40C G44U | 0.02
G5U C31U G40U | 0.02
G5U C37U C42A | 0.03
G5U G7A C10U G22U | 0.55
G5U G7A C13A G21A G27C | 0.9

Variant | self-cleavage
G5U G7A C15U | 0.11
G5U G7C C18A C23G U28A U34A C42A C45G | 0.01
G5U G7C G35U C37A U38C A39G | 0.01
G5U G7U A11G G22U C45A | 0.01
G5U G7U C8G | 0.36
G5U G7U C18G | 0.03
G5U G7U G21U | 0.06
G5U G7U G22A C42A | 0.04
G5U G17A G27A | 0.05
G5U G17C C31A | 0.03
G5U G17C C31G | 0.04
G5U G17U U32A | 0.05
G5U G19A A39G G40A | 0.01
G5U G19A A41C | 0.01
G5U G19A G27C C45A | 0.03
G5U G19C A24G G44U | 0.09
G5U G19C A39U | 0.03
G5U G19C G21U | 0.02
G5U G19U U28G | 0.03
G5U G21A A26C | 0.07
G5U G21A C23A C46A | 0.19
G5U G21A C31A C42U | 0.02
G5U G21A G29A | 0.47
G5U G21A G30U C37A C42G | 0.05

Variant | self-cleavage
G5U G21C C37U | 0.02
G5U G21U A25C A26C | 0.07
G5U G22A A26U G44A | 0.01
G5U G22C A26U G44C | 0.01
G5U G22C C37A A41C | 0.02
G5U G22C U28C C42U C46G | 0.01
G5U G22U A25U G35A C45U | 0.04
G5U G22U C31G | 0.01
G5U G27A G30U U32A G44C | 0.03
G5U G27A U38G | 0.01
G5U G29A A41C | 0.13
G5U G29C U32A G35C | 0.02
G5U G29C U38C | 0.02
G5U G29U C37G C42G G44U | 0.02
G5U G29U G30C | 0.15
G5U G29U G33C | 0.02
G5U G30A C37U | 0.04
G5U G30C G44U | 0.01
G5U G30U C31A C37G | 0.01
G5U G30U G33U C46A | 0.08
G5U G33A C45A | 0.04
G5U G33C C37A C45A | 0.02
G5U G33C C42A | 0.07
G5U G35A U38A C46G | 0.02

Variant | self-cleavage
G5U G35U C46U | 0.1
G5U G35U U43C | 0.03
G5U U9A A16U C31A C45G C46U | 0.18
G5U U9A C13U | 0.11
G5U U9A C15A C18U G36A | 0.09
G5U U9A C18G | 0.08
G5U U9A G29U | 0.05
G5U U9A U28G | 0.09
G5U U9C C45U | 0.07
G5U U9G A12G G29U G30C U32A G35A | 0.02
G5U U9G C13U A14U C18G G21C A24C U32G G40C | 0.04
G5U U9G U32A | 0.04
G5U U20A A24G | 0.04
G5U U20A G21A | 0.06
G5U U20A G30C U38C | 0.01
G5U U20C A26U U43C C46G | 0.03
G5U U20C U38A | 0
G5U U20G A26C U43A | 0.19
G5U U20G A26G | 0.01
G5U U20G G21U U28A A41U | 0.06
G5U U20G G22A C23A | 0.29
G5U U20G U32A | 0.02
G5U U28C G40U | 0
G5U U28G C45U | 0

Variant | self-cleavage
G5U U28G G30C G40U | 0.09
G5U U34A G40A A41U | 0.05
G5U U34G U38A | 0.02
G5U U43G C45A | 0.07
A6C A11C A12C C46A | 0.01
A6C A11C C15U U38C | 0.01
A6C A11C C18U C31A G40A A41G C42U | 0
A6C A11C C23U G40C | 0
A6C A11G C13G C42U | 0.02
A6C A11G C13U A24C A26C U38G C45U | 0
A6C A11G G21A G22U C37U | 0.02
A6C A11G G27U U34G | 0.03
A6C A11G U20A | 0.01
A6C A11G U38A C46U | 0.03
A6C A11U A16C G22C C42U | 0.05
A6C A11U C46U | 1
A6C A12C C15G U38A U43C | 0.01
A6C A12G C31U C42U | 0.04
A6C A12G G19U G21U | 0.01
A6C A12U A14C G21U G30A G40U | 0.03
A6C A14C G27U | 0.03
A6C A14C G40U | 0.07
A6C A14C U28A U38C C42U | 0.01
A6C A14G C15A C18U U34G G36A C45A | 0.01

Variant | self-cleavage
A6C A14U C15U | 0.12
A6C A14U C18U G44C C46A | 0.02
A6C A14U G29A | 0.13
A6C A14U G29C U38C | 0.22
A6C A16C C23U A24C | 0.01
A6C A16C C31A U34A | 0.03
A6C A16G C45U C46A | 0.51
A6C A16G G27C | 0.17
A6C A16G U38G | 0.01
A6C A16U G22C | 0.08
A6C A24U C42A | 0.08
A6C A25U C31G U34G U38A A41C | 0.02
A6C A26G C37A | 0.01
A6C A26G U28C | 1.55
A6C A26U G27C C45G | 0.05
A6C A39C C45U | 0.09
A6C A41U C42U G44C | 0.04
A6C C8A A25C | 0.66
A6C C8A A25G C42A G44C | 0.17
A6C C8A C13A C23G | 0.63
A6C C8A C15A C23U A41G | 0.57
A6C C8A C46G | 0.24
A6C C8A G29C | 0.07

Source: the RNAGym collection of RNA variant scans (doi:10.7554/elife.90254)
